Among all 310,000 compounds or so, about 14,000 (4.5%) showed an effect of 50% or more. Effects have a minus sign here. The list shows a part of the results.
Biological target: human ether-à-go-go-related gene (hERG) potassium channel (human, UniProt Q12809)
Assay: primary screen, population patch clamp on CHO cells stably expressing hERG
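Also: peak tail current of the secondary pulse compared with the same well before compound.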

Chain of human ether-à-go-go-related gene (hERG) potassium channel (Q12809 whole entry, looked up): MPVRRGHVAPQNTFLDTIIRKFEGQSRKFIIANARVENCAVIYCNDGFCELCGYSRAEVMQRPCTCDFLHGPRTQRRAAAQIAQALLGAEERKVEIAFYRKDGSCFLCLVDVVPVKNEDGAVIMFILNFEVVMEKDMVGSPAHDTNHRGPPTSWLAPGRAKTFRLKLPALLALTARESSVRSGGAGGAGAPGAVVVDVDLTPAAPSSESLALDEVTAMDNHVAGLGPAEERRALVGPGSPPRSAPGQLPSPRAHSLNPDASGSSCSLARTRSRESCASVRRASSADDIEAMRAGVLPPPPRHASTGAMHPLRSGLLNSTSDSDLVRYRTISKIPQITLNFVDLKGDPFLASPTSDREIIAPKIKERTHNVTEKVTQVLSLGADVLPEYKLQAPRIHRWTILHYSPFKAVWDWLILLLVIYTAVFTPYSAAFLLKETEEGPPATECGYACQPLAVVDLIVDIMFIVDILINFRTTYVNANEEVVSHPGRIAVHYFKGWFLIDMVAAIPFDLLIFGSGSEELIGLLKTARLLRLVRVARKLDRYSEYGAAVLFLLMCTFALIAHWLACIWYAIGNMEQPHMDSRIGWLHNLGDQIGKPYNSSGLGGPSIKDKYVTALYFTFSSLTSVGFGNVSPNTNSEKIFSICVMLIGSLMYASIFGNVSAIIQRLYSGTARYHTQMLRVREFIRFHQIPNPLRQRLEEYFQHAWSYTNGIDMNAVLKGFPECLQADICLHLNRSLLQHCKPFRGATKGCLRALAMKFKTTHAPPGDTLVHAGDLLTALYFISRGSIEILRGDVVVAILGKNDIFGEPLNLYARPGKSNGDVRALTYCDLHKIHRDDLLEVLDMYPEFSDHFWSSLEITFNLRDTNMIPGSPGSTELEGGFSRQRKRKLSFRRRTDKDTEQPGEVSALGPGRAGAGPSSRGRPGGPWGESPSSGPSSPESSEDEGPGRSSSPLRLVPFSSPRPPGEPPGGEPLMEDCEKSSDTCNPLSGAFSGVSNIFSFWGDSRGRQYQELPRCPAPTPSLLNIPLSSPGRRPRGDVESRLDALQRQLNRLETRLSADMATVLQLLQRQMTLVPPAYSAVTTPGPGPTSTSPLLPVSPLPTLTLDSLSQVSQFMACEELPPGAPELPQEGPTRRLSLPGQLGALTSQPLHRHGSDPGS

Row | SMILES | hERG current change (%, negative = inhibition) at 10uM [%]
1 | CCCCNC(=O)CCC(=O)Nc1ccc2nc(N3CCCCC3)cc(C)c2c1 | -18.5
2 | C(=N\Nc1nc2ccccc2[nH]1)/c1ccccc1 | 17.5
3 | O=C(NCc1ccccc1)C1CCCN1S(=O)(=O)c1ccc(Cl)cc1 (stereo not shown) | -7.85
4 | CCn1c(=O)c2c(nc(SCC(=O)NCC3CCCO3)n2C)n(C)c1=O (stereo not shown) | -0.794
5 | Cc1cc(C(=O)NCCCN2CC(C)CC(C)C2)n(-c2ccccc2)n1 (stereo not shown) | -20.2
6 | Cc1ccc(C)c(Cn2nnc3c(=O)[nH]c(C4CCN(S(=O)(=O)c5ccc(S(=O)(=O)N(C)C)cc5)CC4)nc32)c1 | 31.1
7 | CCCCSc1nnc(CCNC(=O)OC(C)(C)C)o1 | 7.42
8 | CC(C)Cn1c(O)c(/C=C2\C=NN=C2c2ccccc2)sc1=S | 11.6
9 | CCOc1ccc(N(C(=O)CNC(=O)c2ccco2)C(C(=O)NC2CCCC2)c2ccncc2)cc1 (stereo not shown) | -10.7
10 | CC(C)[C@]12CC(=O)[C@H](C)[C@H]1C2 | 16.5
11 | CC#CC(=O)NC1CCCN(C2Cc3ccccc3C2)C1 (stereo not shown) | -18.7
12 | Cc1ccccc1OCc1nnc(SCC(=O)N2c3ccccc3Sc3ccc(Cl)cc32)o1 | 10.2
13 | CN(CCC1CCCCO1)C(=O)CCc1nnc(CCc2ccccc2)o1 (stereo not shown) | 6.83
14 | Cc1nn(CC(=O)NC2CCC(C)CC2)c(=O)c(C#N)c1C (stereo not shown) | -1.66
15 | NC(=O)C(c1ccc(F)cc1)c1ccc(C(=O)c2ccccc2)cc1 (stereo not shown) | -11.5
16 | OC(CN1CCN(Cc2ccccc2)CC1)c1ccc(Br)cc1 (stereo not shown) | -67.9
17 | Cn1ccc(NC(=O)c2ccc(Cl)cc2)n1 | 5.16
18 | O=C(Nc1cccc(Br)c1)c1cc2ccccc2o1 | -3.25
19 | O=C(NCc1ccc2c(c1)OCO2)Nc1ccc(Cl)cc1 | 5.12
20 | COc1ccccc1NC(=O)c1c(N=Cc2ccccc2O)cnn1C | 5.36
21 | O=S(=O)(/N=C(/Nc1ccc(F)cc1F)c1ccccc1)c1ccc(Br)cc1 | 12.3
22 | Cc1ccc(NS(=O)(=O)c2ccc3c(c2)NC(=O)CCS3)c(Br)c1 | -1.14

Row | SMILES | hERG current change (%, negative = inhibition) at 10uM [%]
23 | O=C(Oc1c(-c2ccccc2)c(=O)n2c3c(cccc13)CC2)c1cccc([N+](=O)[O-])c1 | 0.198
24 | CCOC(=O)c1sc(N2N=C(C)/C(=C\c3ccc(OCC(=O)OC)cc3)C2=O)nc1C | 22
25 | Cc1nc2ccccc2c(=O)n1/N=C/c1ccc2ccccc2c1O | 10.9
26 | O=C(Nc1ncc(Br)s1)C(Cc1ccccc1)n1cccc1 (stereo not shown) | -3.05
27 | COc1ccccc1CNC(=O)c1sccc1-c1ccccc1 | -6.16
28 | Cc1ccc(CCCOC(=O)C[N+]2(C)CCCCC2)cc1.[I-] | 0.583
29 | O=C(O)c1ccc(NS(=O)(=O)c2cccc3nsnc23)cc1 | 7.4
30 | COC(=O)C1=C(C)N(CCc2ccc(OC)c(OC)c2)C(=O)/C1=C\c1ccc(O)cc1 | 19.3
31 | Cc1cc(C(=O)CSc2nncs2)c(C)n1-c1ccc2c(c1)OCO2 | -15.8
32 | COc1ccc(OCC(O)CNC(=O)Nc2ccc(C(C)(C)C)cc2)cc1 (stereo not shown) | 1.15
33 | CC(=O)C1=C(O)CC(c2ccccc2)CC1=NCCc1c(C)[nH]c2ccc(C)cc12 (stereo not shown) | -11.3
34 | COc1cc(/C=C/C(=O)OCC(=O)N2CCC(C)CC2)ccc1O | -0.556
35 | CC(C)CNC(=S)N1CCC(NC(=O)c2ccco2)CC1 | -65.7
36 | O=C(O)c1cc2nc(-c3ccccc3)cc(C(F)(F)F)n2n1 | -1.04
37 | COc1ccc(-c2noc(CN3C(=O)c4ccccc4C3=O)n2)cc1 | -9.16
38 | CN(Cc1nc(-c2cnccn2)no1)Cc1n[nH]c2c1CCCCC2 | -0.424
39 | C=C1CCN([C@@H](CC(C)C)C(=O)NCc2ccco2)S(=O)(=O)c2ccccc21 | 2.79
40 | CCCCCn1c(=NC(=O)c2ccco2)c(C(=O)OCC)cc2c(=O)n3ccccc3nc21 | -73.5
41 | CCc1ccn2cc(-c3cc(-c4ccccc4)no3)nc2c1 | 5.11
42 | O=C(Nc1ccccc1C(=O)N/N=C/c1ccco1)c1ccc(Cl)cc1 | 2.77
43 | O=C(O)CCC(=O)N1CC=C(c2ccccc2)CC1 | 6.07

From publication PMC4336329 (PLoS ONE, 2015)
